Some of the results follow. Interaction screen of human proteins with wild-type SARS-CoV-2 proteins by split-DHFR complementation in yeast, 1 µg/mL methotrexate. Value = fitness of the pair (three or more lineages) minus that of the viral protein without a human partner, on a scale set by negative (0) and fused positive (1) controls, mean of up to three cultures; higher = more likely to interact. Active = false discovery rate below 0.05 (one-sided t-test) in at least one culture. Nearly all pairs are not hits, and differences among them are mostly noise (correlation between cultures about 0.3); most hits were seen in one culture only. Human sequences are the Swiss-Prot entries looked up by gene name; the clone may be another isoform. NSP2 values were corrected by the authors for a growth advantage. Listed are human proteins with a hit and a random twelfth of the others.
B1: C3orf18, Q9UK00 (protein)
chain: MNSRTASARGWFSSRPPTSESDLEPATDGPASETTTLSPEATTFNDTRIPDAAGGTAGVGTMLLSFGIITVIGLAVALVLYIRKKKRLEKLRHQLMPMYNFDPTEEQDELEQELLEHGRDAASVQAATSVQAMQGKTTLPSQGPLQRPSRLVFTDVANAIHA
B2: CA11, O75493 (protein)
chain: MGAAARLSAPRALVLWAALGAAAHIGPAPDPEDWWSYKDNLQGNFVPGPPFWGLVNAAWSLCAVGKRQSPVDVELKRVLYDPFLPPLRLSTGGEKLRGTLYNTGRHVSFLPAPRPVVNVSGGPLLYSHRLSELRLLFGARDGAGSEHQINHQGFSAEVQLIHFNQELYGNFSAASRGPNGLAILSLFVNVASTSNPFLSRLLNRDTITRISYKNDAYFLQDLSLELLFPESFGFITYQGSLSTPPCSETVTWILIDRALNITSLQMHSLRLLSQNPPSQIFQSLSGNSRPLQPLAHRALRGNRDPRHPERRCRGPNYRLHVDGVPHGR
B3: CA6, P23280 (protein)
chain: MRALVLLLSLFLLGGQAQHVSDWTYSEGALDEAHWPQHYPACGGQRQSPINLQRTKVRYNPSLKGLNMTGYETQAGEFPMVNNGHTVQISLPSTMRMTVADGTVYIAQQMHFHWGGASSEISGSEHTVDGIRHVIEIHIVHYNSKYKSYDIAQDAPDGLAVLAAFVEVKNYPENTYYSNFISHLANIKYPGQRTTLTGLDVQDMLPRNLQHYYTYHGSLTTPPCTENVHWFVLADFVKLSRTQVWKLENSLLDHRNKTIHNDYRRTQPLNHRVVESNFPNQEYTLGSEFQFYLHKIEEILDYLRRALN
B4: CRH, P06850 (protein)
chain: MRLPLLVSAGVLLVALLPCPPCRALLSRGPVPGARQAPQHPQPLDFFQPPPQSEQPQQPQARPVLLRMGEEYFLRLGNLNKSPAAPLSPASSLLAGGSGSRPSPEQATANFFRVLLQQLLLPRRSLDSPAALAERGARNALGGHQEAPERERRSEEPPISLDLTFHLLREVLEMARAEQLAQQAHSNRKLMEIIGK

The binders below were run against SARS-CoV-2 E (assay: yeast fitness gain over the viral ORF with no human partner (scaled fitness); higher = more likely to interact).
Method: (§1)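 Split mouse DHFR complementation in pooled diploid yeast: human ORFeome clones carry one fragment and viral ORFs the other; barcoded lineages compete in 1 µg/mL methotrexate and fitness is read by barcode sequencing in up to three cultures.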

Binder | yeast fitness gain
B1 | inactive: -0.0628
B2 | inactive: -0.11
B3 | inactive: -0.105
B4 | inactive: -0.0924

The binders below were run against SARS-CoV-2 M in the same assay as above.
Method: as §1

Binder | yeast fitness gain
B1 | inactive: -0.133
B2 | inactive: -0.0401
B3 | inactive: 0.0109
B4 | inactive: 0.0192

The binders below were run against SARS-CoV-2 NSP1 in the same assay as above.
Method: as §1

Binder | yeast fitness gain
B1 | inactive: 0.0104
B2 | inactive: -0.0478
B3 | inactive: -0.00848
B4 | inactive: -0.0238

The binders below were run against SARS-CoV-2 NSP10 in the same assay as above.
Method: as §1

Binder | yeast fitness gain
B1 | inactive: -0.0477
B2 | inactive: -0.00605
B3 | inactive: 0.0453
B4 | inactive: 0.00484

The binders below were run against SARS-CoV-2 NSP12 in the same assay as above.
Method: as §1

Binder | yeast fitness gain
B1 | inactive: 0.0299
B2 | inactive: 0.0357
B3 | inactive: -0.0282
B4 | inactive: -0.00331

These binders were tested against SARS-CoV-2 NSP13 in the same assay as above.
Method: as §1

Binder | yeast fitness gain
B1 | inactive: -0.11
B2 | inactive: -0.00796
B3 | inactive: 0.0145
B4 | inactive: -0.00145

The binders below were run against SARS-CoV-2 NSP15 in the same assay as above.
Method: as §1

Binder | yeast fitness gain
B1 | inactive: 0.051
B2 | inactive: 0.00199
B3 | inactive: -0.0335
B4 | inactive: 0.0135

Each binder was assayed against SARS-CoV-2 NSP16 in the same assay as above.
Method: as §1

Binder | yeast fitness gain
B1 | inactive: 0.0444
B2 | inactive: -0.0884
B3 | inactive: -0.0773
B4 | inactive: -0.0207

Each binder was assayed against SARS-CoV-2 NSP2 in the same assay as above.
Method: as §1

Binder | yeast fitness gain
B1 | inactive: -0.049
B2 | inactive: -0.0806
B3 | inactive: -0.108
B4 | inactive: -0.161

Each binder was assayed against SARS-CoV-2 NSP5 in the same assay as above.
Method: as §1

Binder | yeast fitness gain
B1 | inactive: -0.0164
B2 | inactive: 0.0336
B3 | inactive: 0.0107
B4 | inactive: 0.0257

Each binder was assayed against SARS-CoV-2 NSP6 in the same assay as above.
Method: as §1

Binder | yeast fitness gain
B1 | inactive: 0.0218
B2 | inactive: 0.0928
B3 | inactive: -0.048
B4 | inactive: -0.0319

The binders below were run against SARS-CoV-2 NSP7 in the same assay as above.
Method: as §1

Binder | yeast fitness gain
B1 | inactive: 0.0167
B2 | inactive: 0.0188
B3 | inactive: 0.0408
B4 | inactive: 0.0675

These binders were tested against SARS-CoV-2 NSP8 in the same assay as above.
Method: as §1

Binder | yeast fitness gain
B1 | inactive: 0.0988
B2 | inactive: -0.01
B3 | inactive: 0.00277
B4 | inactive: 0.0742

Each binder was assayed against SARS-CoV-2 ORF10 in the same assay as above.
Method: as §1

Binder | yeast fitness gain
B1 | inactive: -0.0944
B2 | inactive: -0.0495
B3 | inactive: 0.0189
B4 | inactive: -0.0167

These binders were tested against SARS-CoV-2 ORF3A in the same assay as above.
Method: as §1

Binder | yeast fitness gain
B1 | inactive: 0.00176
B2 | inactive: 0.145
B3 | inactive: -0.00799
B4 | inactive: 0.0182

Each binder was assayed against SARS-CoV-2 ORF3B in the same assay as above.
Method: as §1

Binder | yeast fitness gain
B1 | inactive: -0.0465
B2 | inactive: 0.0446
B3 | inactive: 0.029
B4 | inactive: -0.0746

Each binder was assayed against SARS-CoV-2 ORF6 in the same assay as above.
Method: as §1

Binder | yeast fitness gain
B1 | inactive: -0.0295
B2 | inactive: 0.00745
B3 | inactive: -0.0355
B4 | inactive: 0.0165

Each binder was assayed against SARS-CoV-2 ORF7A in the same assay as above.
Method: as §1

Binder | yeast fitness gain
B1 | inactive: -0.0575
B2 | inactive: 0.0159
B3 | inactive: -0.0514
B4 | inactive: 0.076

Each binder was assayed against SARS-CoV-2 ORF7B in the same assay as above.
Method: as §1

Binder | yeast fitness gain
B1 | inactive: 0.0892
B2 | inactive: -0.0895
B3 | inactive: 0.101
B4 | inactive: -0.101

What follows are binders tested against SARS-CoV-2 ORF8 in the same assay as above.
Method: as §1

Binder | yeast fitness gain
B1 | inactive: 0.00115
B2 | inactive: 0.0331
B3 | inactive: 0.0666
B4 | inactive: -0.000435

What follows are binders tested against SARS-CoV-2 ORF9B in the same assay as above.
Method: as §1

Binder | yeast fitness gain
B1 | inactive: -0.0168
B2 | inactive: -0.0378
B3 | inactive: 0.024
B4 | inactive: -0.0229

These binders were tested against SARS-CoV-2 ORF9Bwu (the 73-codon ORF) in the same assay as above.
Method: as §1

Binder | yeast fitness gain
B1 | inactive: 0.0254
B2 | inactive: 0.0768
B3 | inactive: -0.0673
B4 | inactive: -0.162

The binders below were run against SARS-CoV-2 S in the same assay as above.
Method: as §1

Binder | yeast fitness gain
B1 | inactive: 0.0087
B2 | inactive: 0.0831
B3 | inactive: 0.0311
B4 | inactive: 0.0105

Each binder was assayed against SARS-CoV-2 N in the same assay as above.
Method: as §1

Binder | yeast fitness gain
B2 | inactive: -0.101
B3 | inactive: 0.013
B4 | inactive: -0.0859

These binders were tested against SARS-CoV-2 NSP4 in the same assay as above.
Method: as §1

Binder | yeast fitness gain
B3 | inactive: -0.204

The binders below were run against SARS-CoV-2 NSP9 in the same assay as above.
Method: as §1

Binder | yeast fitness gain
B3 | inactive: -0.062
B4 | inactive: -0.0545

What follows are binders tested against SARS-CoV-2 NSP14 in the same assay as above.
Method: as §1

Binder | yeast fitness gain
B4 | inactive: -0.165

Source: the supplement of paper PMC11741623
